Assay results from patent US20240076403A1 (SIMCERE ZAIMING PHARMACEUTICAL, published 2024).

Legend:
monkey HER2-His protein [1] = target: T1, monkey HER2-His protein (monkey); test: ELISA, coated monkey HER2-His
T1 construct: Bought protein; also called monkey HER2 protein

monkey HER2-His protein [2] = target: T1, monkey HER2-His protein; test: SPR, antibody captured on Protein A chip, monkey HER2-His analyte, 1:1 model
[3] = target: T2, monkey HER2 on HEK293T-monkey-HER2 cells (monkey); test: FACS on HEK293T-monkey-HER2 cells
T2 construct: whole, on cells

[4] = target: T3, recombinant human HER2-His protein (human, UniProt P04626 part only, limits assumed); test: SPR, antibody captured on Protein A chip, human HER2-His analyte, 1:1 model
T3 construct: also called human HER2 protein; not shown: His tag

murine HER2-His protein = target: T4, murine HER2-His protein (murine, UniProt P70424 23-653); test: ELISA, coated murine HER2-His
T4 construct: Bought protein; also called murine HER2 protein; not shown: His tag

Chain of murine HER2-His protein (P70424 23-653): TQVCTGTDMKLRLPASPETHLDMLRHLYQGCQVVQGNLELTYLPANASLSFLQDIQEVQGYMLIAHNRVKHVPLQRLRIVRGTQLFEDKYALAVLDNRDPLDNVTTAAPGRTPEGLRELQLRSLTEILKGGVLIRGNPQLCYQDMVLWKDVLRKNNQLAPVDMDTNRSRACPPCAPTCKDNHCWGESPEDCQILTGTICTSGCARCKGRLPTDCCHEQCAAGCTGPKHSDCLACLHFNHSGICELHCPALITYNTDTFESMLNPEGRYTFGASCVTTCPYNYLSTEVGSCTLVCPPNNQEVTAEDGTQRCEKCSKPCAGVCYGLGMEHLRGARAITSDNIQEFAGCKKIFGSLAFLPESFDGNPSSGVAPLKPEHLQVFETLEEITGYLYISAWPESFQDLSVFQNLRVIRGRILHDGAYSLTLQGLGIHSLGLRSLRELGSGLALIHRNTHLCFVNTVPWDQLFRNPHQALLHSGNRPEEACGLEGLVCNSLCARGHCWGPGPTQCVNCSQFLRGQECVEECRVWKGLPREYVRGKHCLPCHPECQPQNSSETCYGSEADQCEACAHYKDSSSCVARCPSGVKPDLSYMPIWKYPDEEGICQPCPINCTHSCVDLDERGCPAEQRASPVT

Binder	OD450 nm at 0.0001 nM antibody (monkey HER2-His protein [1]) [OD450 nm]	OD450 nm at 0.001 nM antibody (monkey HER2-His protein [1]) [OD450 nm]	OD450 nm at 0.01 nM antibody (monkey HER2-His protein [1]) [OD450 nm]	OD450 nm at 0.1 nM antibody (monkey HER2-His protein [1]) [OD450 nm]	OD450 nm at 1 nM antibody (monkey HER2-His protein [1]) [OD450 nm]	OD450 nm at 10 nM antibody (monkey HER2-His protein [1]) [OD450 nm]	OD450 nm at 100 nM antibody (monkey HER2-His protein [1]) [OD450 nm]	Kd (monkey HER2-His protein [2]) [nM]	koff (monkey HER2-His protein [2]) [s⁻¹]	kon (monkey HER2-His protein [2]) [M⁻¹ s⁻¹]	EC50 [3] [nM]	Max MFI [3] [MFI]	Kd [4] [nM]	koff [4] [s⁻¹]	kon [4] [M⁻¹ s⁻¹]	OD450 nm at 0.0001 nM antibody (murine HER2-His protein) [OD450 nm]	OD450 nm at 0.001 nM antibody (murine HER2-His protein) [OD450 nm]	OD450 nm at 0.01 nM antibody (murine HER2-His protein) [OD450 nm]	OD450 nm at 0.1 nM antibody (murine HER2-His protein) [OD450 nm]	OD450 nm at 1 nM antibody (murine HER2-His protein) [OD450 nm]	other results
Tab094 (FRP5 ScFv-human IgG1 Fc (hFc)) (Fc fusion, Control antibody; also called Tab94; FRP5 scFv-hFc) scFv: QVQLQQSGPELKKPGETVKISCKASGYPFTNYGMNWVKQAPGQGLKWMGWINTSTGESTFADDFKGRFDFSLETSANTAYLQINNLKSEDMATYFCARWEVYHGYVPYWGQGTTVTVSSGGGGSGGGGSGGGGSDIQLTQSHKFLSTSVGDRVSITCKASQDVYNAVAWYQQKPGQSPKLLIYSASSRYTGVPSRFTGSGSGPDFTFTISSVQAEDLAVYFCQQHFRTPFTFGSGTKLEIK[human IgG1 Fc with changes not written out]	0.07	0.07	0.12	0.77	3.02	3.29	3.29	0.849	8.23e-05	96900	4.61	24100	0.459	4.57e-05	99600	–	–	–	–	–	–
NB146-125 VHH-hFc (Fc fusion, the junction is not described) EVQLVESGGGLVQAGGSLTLSCVASETIFRRNAMAWYRQAPGQQRELVASIRRGAFTYYPNSMKGRFTISRDDAKNTVFLQMNSLKPEDTGVYYCRSLNDDYWGQGTQVTVSS[human IgG1 Fc with changes not written out]	0.06	0.08	0.08	0.3	0.99	1.35	1.56	28.4	0.00211	74100	1.4	21300	11.6	0.000789	–	0.05	0.05	0.05	0.05	0.06	OD450 nm at 10 nM antibody (murine HER2-His protein): 0.06 OD450 nm; OD450 nm at 100 nM antibody (murine HER2-His protein): 0.06 OD450 nm
NB146-54 VHH-hFc (Fc fusion, the junction is not described) QLQLVESGGGLVQAGGSLRLSCVASGTFFSTKTMAWYRQAPGNQREWIATISPDGTTRHADSMKGRSTISRDNAKKVVYLQLDSLKPEDTAAYYCRDISRDLWGQGTQVTVSS[human IgG1 Fc with changes not written out]	0.05	0.05	0.08	0.36	1.19	1.69	2.01	8.53	0.000568	66500	1.71	23000	6.22	0.000301	48300	0.05	0.05	0.05	0.05	0.05	OD450 nm at 10 nM antibody (murine HER2-His protein): 0.05 OD450 nm; OD450 nm at 100 nM antibody (murine HER2-His protein): 0.05 OD450 nm
NB147-83 VHH-hFc (Fc fusion, the junction is not described) QLQLVESGGGLVQPGGSLTLSCAASGFPASHYYAIRWFRQAPGKERDGIACISSYDGSTNYADSVKGRFTISNDGAKKTVYLHMSDVQPEDAAVYFCAATIHFSAYEECQAYEYHYWGQGTQVTVSS[human IgG1 Fc with changes not written out]	0.06	0.06	0.1	0.43	2.52	3.27	3.32	1710	0.00218	1270	4.82	20800	69	0.00208	30100	0.05	0.06	0.05	0.05	0.05	OD450 nm at 10 nM antibody (murine HER2-His protein): 0.06 OD450 nm; OD450 nm at 100 nM antibody (murine HER2-His protein): 0.07 OD450 nm
NB146-28 VHH-hFc (Fc fusion, the junction is not described) EVQLVESGGTRVQPGGSLKLSCATSGIMFSYNTMAWYRQAPGKQRELVATITRDGSTNYADSMKGRFTISRDNAKNTLYLQMNGLKPEDTAVYYCNLGTTDWRRYNYWGQGTQVTVSS[human IgG1 Fc with changes not written out]	0.05	0.06	0.12	0.71	2.18	2.41	2.93	38.8	0.0115	295000	1.15	19800	11.3	0.0022	194000	0.05	0.05	0.05	0.05	0.05	OD450 nm at 10 nM antibody (murine HER2-His protein): 0.05 OD450 nm; OD450 nm at 100 nM antibody (murine HER2-His protein): 0.05 OD450 nm
NB147-14 VHH-hFc (Fc fusion, the junction is not described) QVQLVESGGGLVRPGGSLRLSCVLSGRTFSDYAMRWFRQAPGKEREFVASINWSGTHTDYADSVKGRFTISRDNAKKTVYLQMHSLTPTDTAVYYCTFGWGPQLPGTDYWGQGTQVTVAP[human IgG1 Fc with changes not written out]	0.05	0.07	0.15	1	3.1	3.25	3.31	37.8	0.0164	434000	1.43	21300	29.7	0.0199	671000	0.05	0.05	0.05	0.05	0.09	OD450 nm at 10 nM antibody (murine HER2-His protein): 0.05 OD450 nm; OD450 nm at 100 nM antibody (murine HER2-His protein): 0.07 OD450 nm
NB147-110 VHH-hFc (Fc fusion, the junction is not described) EVQVVESGGGLVQPGGSLRLSCTASGHTLDYYAIGWFRQAPGKEREGVSCITSTGTITNYADSVKGRFTISRDNAKNTVYLQMNSLKPEDTAVYYCAVLRGSYCRSNTFDAWGQGTLVTVSS[human IgG1 Fc with changes not written out]	0.06	0.06	0.12	0.79	2.72	3.02	3.06	54.2	0.00417	76900	1.87	21500	78.5	0.00438	55900	–	–	–	–	–	–
